# Laboratory results taken from the supplement of paper PMC3656093.
# ± gives the standard deviation of the averaged measurements. The full ranking holds about 1,900 compounds; the median of “CD40L-induced NF-kB luciferase activity, plate-corrected, relative to DMSO (0) and IKK inhibitor VII (-100) controls” is about 0.032, and the lowest 2% start at about -26. The list shows a part of the results.
# Tested on: BL2-NFkB-Luc
# Assay: CD40L-induced NF-kB luciferase activity, plate-corrected, relative to DMSO (0) and IKK inhibitor VII (-100) controls (% normalized activity); higher = more NF-kB reporter activity (less inhibition)
# Conditions: 9.4 µM; stimulus: tCD40L 64 ng/ml; 4.5 h
# Description: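 BL2 B cells with a stable NF-kB response-element luciferase reporter (BL2-NFkB-Luc), 384-well. Cells were pre-incubated with compound at 9.4 uM for 1 h at 37 C, then stimulated with 64 ng/ml trimerized CD40L for 4.5 h; luciferase was read with Steady-Glo. Signal was normalised per plate in Genedata (median DMSO neutral control = 0, median IKK inhibitor VII at 50 uM = -100) with Assay Median plate-pattern correction; duplicate plates.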
row,SMILES,CD40L-induced NF-kB luciferase activity
1,CC(C)(C)OC(=O)COc1cc(OCC(=O)OC(C)(C)C)c2c(=O)cc(-c3ccccc3)oc2c1,-1.69 ± 2
2,Cc1ccc(C2=NOC(=O)/C2=C\C=C\c2ccccc2)cc1,7.89 ± 1.7
3,O=C(COc1cc(O)c2c(=O)c3ccccc3oc2c1)OCc1ccccc1,-8.27 ± 14
4,CCOc1ccc(CC2CCC(=O)NC2=O)cc1 (configuration not stated),4.06 ± 5.1
5,Cn1cc(CN2CCC(C(=O)N3CCCCC3)CC2)c(-c2ccccc2F)n1,1.51 ± 1.2
6,CCOC(=O)C1=C(C)N[C@@]2(O)c3ccccc3C(=O)[C@@]12O,11.4 ± 1.2
7,CC(=O)Oc1ccc(C(=O)O)cc1OC(C)=O,0.925 ± 0.045
8,COc1ccc(NC(=O)C2OC3OC(C)(C)OC3C3OC(C)(C)OC23)cc1 (configuration not stated),1.04 ± 6.2
9,O=C(O)c1cc2cc(F)ccc2[nH]1,-4.02 ± 4
10,COc1ccc(C(=O)Nc2ccccc2C(=O)NC(Cc2c[nH]c3ccccc23)C(=O)O)cc1 (configuration not stated),-0.217 ± 2
11,Cc1cccc(N(C)C(=S)Oc2ccc3ccccc3c2)c1,0.54 ± 2.5
12,O=C(O)c1cccnc1,-2.25 ± 4.9
13,CCCCc1oc2ccccc2c1C(=O)c1cc(I)c(OCCN(CC)CC)c(I)c1,-5.84 ± 11
14,Cc1ccccc1N1C(N)=NC(N)=NC1(C)C,-0.82 ± 0.14
15,CN1C(=O)NC(c2ccc(O)cc2)C2=C1CN(c1cccc3ccccc13)C2=O (configuration not stated),-0.466 ± 3.7
16,COCCCN1C(=O)/C(=C\c2cccs2)C(C(=O)OC)=C1C,3.31 ± 6.8
17,CC1(C)O[C@@H]2C[C@H]3[C@@H]4C[C@H](F)C5=CC(=O)CC[C@]5(C)[C@H]4[C@@H](O)C[C@]3(C)[C@]2(C(=O)CO)O1,-21.3 ± 0.59
18,CC(=O)Nc1ccc(CN2CCN(C3CCCCC3)C(CCO)C2)cc1 (configuration not stated),-3.33 ± 2.4
19,CC12CCC(C(=O)NCc3ccc4c(c3)OCO4)(CC1=O)C2(C)C (configuration not stated),0.33 ± 1.6
20,COc1cccc(OCc2nnc(-c3cccs3)o2)c1,18.5 ± 4.1
21,COc1ccc(C2C3C(C)=NN=C3CC(C)(O)C2C(C)=O)cc1 (configuration not stated),2.23 ± 0.31
22,COc1ccccc1OS(=O)(=O)c1ccc(NC(C)=O)cc1,-5.27 ± 7.2
23,CC12CCC(C(=O)N3CCCCC3)([C@H](Br)C1=O)C2(C)C (some centres not stated),-0.16 ± 1.6
24,COc1cc(NC(=S)NC(=O)c2cccs2)ccc1NC(=O)C(C)C,21.8 ± 2.5
25,NNC(=O)c1ccncc1,3.57 ± 0.34
26,COc1ccc(OC)c(C(=O)c2coc3ccc(O)cc23)c1,11.7 ± 0.53

row,SMILES,CD40L-induced NF-kB luciferase activity
1,CC(=O)C1=C(O)C(=O)OC1c1ccc(C)cc1 (configuration not stated),0.359 ± 1.5
2,C[C@]12CC[C@@H]3c4ccc(O)cc4C(=O)C[C@H]3[C@@H]1CC[C@@H]2O,7.84 ± 6.3
3,COC(=O)c1ccc(NC(=O)c2ccccc2SC)cc1,18 ± 0.93
4,CC(=O)OCC(=O)[C@@]1(O)CC[C@H]2[C@@H]3CCC4=CC(=O)C=C[C@]4(C)[C@H]3[C@@H](O)C[C@@]21C,-43.8 ± 2.2
5,Cc1c(CCOC(=O)CC23CC4CC(CC(C)(C4)C2)C3)sc[n+]1Cc1ccc([N+](=O)[O-])cc1,-9.19 ± 4.1
6,COc1ccc(/C=C(/C#N)c2cccnc2)cc1OC,3.06 ± 3.7
7,C[C@H](CS)C(=O)N1CCC[C@H]1C(=O)O,-2.48 ± 0.67
8,COc1cccc(N2CC34C=CC(O3)C(C(=O)O)C4C2=O)c1 (configuration not stated),8.23 ± 1.8
9,CC1=CC2(O)OCCN(CCO)C2=CC1=O (configuration not stated),-2.33 ± 5.6
10,CC(=O)c1cn(C)c(=O)[nH]c1=O,0.241 ± 1.2
11,NCCc1ccc(O)c(O)c1,-1.92 ± 0.31
12,Cc1nonc1CN(C)C(=O)c1ccc(OC2CCN(C(=O)c3cccnc3)CC2)cc1,41.9 ± 0.33
13,CC(C)(C)c1ccc(/C=C/C(=O)N2CCCCC2)cc1,71.9 ± 8.8
14,COCCNC(=O)CSc1ccc(Cl)cc1,0.647 ± 1.4
15,OC(CCN1CCCC1)(c1ccccc1)C1CCCCC1 (configuration not stated),0.49 ± 3
16,CCCCCCCCN[C@H](C)[C@@H](O)c1ccc(SC(C)C)cc1,4.01 ± 2.6
17,CCCCOc1ccc(C(=O)CCN2CCCCC2)cc1,-3.59 ± 1.6
18,COc1cc(CO)ccc1OCc1nnnn1-c1ccc(C)cc1,2.51 ± 0.59
19,C[C@H](NC(=O)C1(c2ccccc2)CCN(C(=O)[C@H]2CSCN2C(=O)OC(C)(C)C)CC1)C(=O)O,5.46 ± 5.9
20,CC[C@]1(O)C[C@@H]2CN(CCc3c([nH]c4ccccc34)[C@@](C(=O)OC)(c3cc4c(cc3OC)N(C=O)[C@H]3[C@@](O)(C(=O)OC)[C@H](OC(C)=O)[C@]5(CC)C=CCN6CC[C@]43[C@@H]65)C2)C1,-50.4 ± 4.8
21,NS(=O)(=O)c1cc2c(cc1Cl)NC(C1C[C@H]3C=C[C@@H]1C3)NS2(=O)=O (some centres not stated),4.77 ± 0.85
22,COc1cc2nc(N3CCN(C(=O)C4COc5ccccc5O4)CC3)nc(N)c2cc1OC (configuration not stated),0.0855 ± 3.3
23,C[C@@H]1C[C@H]2[C@@H]3CCC4=CC(=O)C=C[C@]4(C)[C@@]3(F)[C@@H](O)C[C@]2(C)[C@H]1C(=O)CO,-31.39 ± 0.23
24,Cc1cc(C(C)(C)C)cc(C)c1CC1=NCCN1,-2.48 ± 2.8
25,CCN(CCCCOC(=O)c1ccc(OC)c(OC)c1)C(C)Cc1ccc(OC)cc1 (configuration not stated),-3.39 ± 0.46
26,COC(=O)c1cc(COc2ccc3ccc(=O)oc3c2)c(C)o1,-1.24 ± 3.4
